# From PubChem BioAssay AID485294 (National Center for Advancing Translational Sciences (NCATS), 2010)
# In all, about 370,000 compounds went through this assay and about 150 (0.041%) were called active. This list was built around the results that the source calls inconclusive (neither active nor inactive); the mix of calls is not that of the screen. Calls follow the shape of the dose curve; as a rule, active = well fitted inhibition curve with a large enough effect; inconclusive = small, poorly fitted or top-dose-only effect; inactive = flat fitted curve, though single readings scatter. No potency is given beside an inconclusive call; the fits are too rough.
# Target: Beta-lactamase (Escherichia coli (strain K12)) (UniProt P00811)
# Assay: qHTS Inhibitors of AmpC Beta-Lactamase (assay with detergent); also: nearly all actives have a fitted effect of over 25% in size;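 as to activity change, negative = inhibition: 0% = no-compound wells and -100% = no-enzyme wells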
# Conditions: AmpC hydrolysis of nitrocefin, absorbance 480 nm, 0.01% Triton; activity change, negative = inhibition: at 114 µM (top of the series)
# Method in brief: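 AmpC (5.3 nM in the dispensed reagent) in 20 mM phosphate pH 7.0 with 0.01% (detergent screen) or 0.0001% Triton X-100 was preincubated with compounds for 15 min at room temperature. Nitrocefin was then added from an 800 uM solution, and hydrolysis was followed at 480 nm.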
# Potency is read from the fitted curve at half-maximal effect; tags tell the direction and shape of the fitted curve.
# Sequence of UniProt P00811 (P00811 whole entry, looked up): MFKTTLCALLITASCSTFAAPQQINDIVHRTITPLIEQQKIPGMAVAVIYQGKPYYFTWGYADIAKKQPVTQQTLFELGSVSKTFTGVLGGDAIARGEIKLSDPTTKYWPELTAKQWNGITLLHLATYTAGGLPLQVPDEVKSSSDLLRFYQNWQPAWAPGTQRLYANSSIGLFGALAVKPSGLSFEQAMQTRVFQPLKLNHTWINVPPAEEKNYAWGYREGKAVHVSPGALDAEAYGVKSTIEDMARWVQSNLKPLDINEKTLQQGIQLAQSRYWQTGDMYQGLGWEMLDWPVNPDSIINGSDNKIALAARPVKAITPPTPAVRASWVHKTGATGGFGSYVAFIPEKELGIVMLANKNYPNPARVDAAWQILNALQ
SMILES,Potency,"activity change, negative = inhibition"
CN(Cc1ccccc1)Cc1nc2c(c(=O)n(C)c(=O)n2C)n1Cc1ccc(F)cc1,"inconclusive [inhibitor, full curve]",–
CC(NC(=O)c1cc2c(s1)CS(=O)(=O)C2)c1ccccc1 (stereo unspecified),"inconclusive [inhibitor, single point]",–
Cc1nn(-c2cccc([N+](=O)[O-])c2)c(N)c1-c1ccccc1,"inconclusive [inhibitor, full curve, poor fit]",–
CC1(C#CC[N+]2(C)CCCCC2)CCC2C(O1)c1ccccc1OC2(C)C (stereo unspecified),"inconclusive [inhibitor, partial curve, poor fit]",–
CC(C)(C)OC(=O)N1CCC(c2c(C(=O)NC3CCCCC3)cnn2-c2cccc(Cl)c2)CC1,–,inactive: 23.6%
Cc1ccc(Cl)cc1N1CCN(C(=O)C2CCN(Cc3nc(-c4ccc(Cl)cc4)oc3C)CC2)CC1,–,inactive: -12.4%
CCOC(=O)CNC(=O)CN1CCC(c2nc3ccccc3[nH]2)CC1,"inconclusive [inhibitor, full curve]",–
COc1ccc(S(=O)(=O)Nc2ccc(C(N)=O)cc2)cc1C(=O)N1CCCCCC1,"inconclusive [inhibitor, partial curve, poor fit]",–
O=C(CCCCCN1C(=O)c2ccccc2C1=O)Nc1ccccc1,"inconclusive [inhibitor, full curve, poor fit]",–
O=C(NCc1ccccn1)c1ccc(OC2CCN(Cc3ccccc3O)CC2)cc1,"inconclusive [inhibitor, full curve, poor fit]",–
C=CCNC(=S)N(CC=C)C1CCS(=O)(=O)C1 (stereo unspecified),"inconclusive [inhibitor, full curve, poor fit]",–
COc1ccc(CCN2CC(C(=O)NCCN3CCOC3=O)CCC2=O)cc1 (stereo unspecified),"inconclusive [inhibitor, partial curve]",–
CN(C)C(=O)CCC(=O)N(C)CC1CCCN(CCc2ccc(F)cc2)C1 (stereo unspecified),"inconclusive [inhibitor, full curve, poor fit]",–
Cn1c(=O)c2c(nc3n2CCCN3CCc2ccccc2)n(C)c1=O,"inconclusive [inhibitor, full curve, poor fit]",–
CNC(=O)c1c[nH]n2c(=O)c(Cc3ccccc3F)c(C)nc12,"inconclusive [inhibitor, full curve, poor fit]",–
COc1ccc(/C=C/C(=O)NCCn2c(C)cc3ccccc32)cc1OC,"inconclusive [inhibitor, partial curve, poor fit]",–
CC(=O)c1cccc(OCC(=O)NC2CCCCCC2)c1,"inconclusive [inhibitor, partial curve, poor fit]",–
COc1cccc(NC(=O)c2ccc(NC(=O)C(C)C)cc2)c1,–,inactive: -4.61%
Cc1ccc(CNS(=O)(=O)c2ccc3c(c2)NC(=O)CO3)cc1,"inconclusive [inhibitor, full curve, poor fit]",–
CC1CCN(S(=O)(=O)c2cccc(C(=O)N(Cc3ccccc3)c3ccccn3)c2)CC1,–,inactive: 3.83%
COc1cccc(C(c2sc3nc(C)nn3c2O)N2CCc3ccccc3C2)c1 (stereo unspecified),"inconclusive [inhibitor, full curve]",–

SMILES,Potency,"activity change, negative = inhibition"
O=C(c1ccccc1)c1cccn1CC(=O)N1CCc2ccccc2C1,"inconclusive [inhibitor, full curve, poor fit]",–
COc1ccc(NC(=O)CC2C(=O)N(c3cccc(OC)c3)C(=O)N2CCC(C)C)cc1 (stereo unspecified),–,inactive: -3.4%
Cc1ccc(Cl)c(NC(=O)CSc2n[nH]c(=O)n2C2CC2)c1Cl,"inconclusive [inhibitor, full curve, poor fit]",–
Cc1[nH]c2ccccc2c1C(c1ccncc1)N1CCN(c2ccc(F)cc2)CC1 (stereo unspecified),–,inactive: 5.14%
Fc1ccc(COc2ccc(/C=N/n3cnnc3)cc2)cc1,"inconclusive [inhibitor, full curve]",–
Cc1cccc(N2CCN(C3(c4ccccc4)C(=O)c4ccccc4C3=O)CC2C)c1 (stereo unspecified),–,inactive: 1.96%
Cc1ccc2occ(-c3cc(-c4ccc(Cl)cc4)nc4c3COc3ccccc3-4)c(=O)c2c1,–,inactive: 3.64%
O=C(O)CCn1cc(/C=N/O)c(-c2cccc([N+](=O)[O-])c2)n1,–,inactive: -11.3%
O=C(CNC(=O)c1ccc(Cl)cc1Cl)OCC(=O)N1CCCC1=O,–,inactive: -0.984%
CCCn1cc(S(=O)(=O)c2ccc(CC)cc2)c(=O)c2ccccc21,–,inactive: 2.22%
O=C(Nc1cccc(O)c1)C(Cc1ccccc1)N1C(=O)c2cccc3cccc(c23)C1=O (stereo unspecified),"inconclusive [inhibitor, partial curve, poor fit]",–
Cc1cc(C)c(NC(=O)CSc2nc3ccccc3c(=O)n2CCCN2CCOCC2)c(C)c1,"inconclusive [inhibitor, partial curve, poor fit]",–
COc1ccc(-c2noc(=O)[nH]2)cc1,"inconclusive [inhibitor, partial curve, poor fit]",–
CC(CCc1ccccc1)NS(=O)(=O)c1ccccc1F (stereo unspecified),"inconclusive [inhibitor, full curve, poor fit]",–
CC(=O)c1ccc(NC(=O)CCc2nnc3ccc(N4CCCC4)nn23)cc1,–,inactive: -11.4%
COc1ccc(N2CCc3c(C)nc4c(OC)cc(OC)cc4c32)c(OC)c1,"inconclusive [inhibitor, partial curve, poor fit]",–
Cn1nc(Oc2ncc(C(F)(F)F)cc2Cl)cc1C(F)(F)F,"inconclusive [inhibitor, full curve, poor fit]",–
Cc1ccccc1NC(=O)CSc1nc(N)c2c3c(sc2n1)CSC(C)(C)C3,"inconclusive [inhibitor, full curve, poor fit]",–
COc1cc(C(=O)Nc2ccc(S(=O)(=O)Nc3onc(C)c3C)cc2)cc(OC)c1OC,"inconclusive [inhibitor, partial curve]",–
Cc1ccc(SC/C(O)=C(\C#N)c2nc3ccccc3n2C)cc1,"inconclusive [inhibitor, full curve, poor fit]",–
